Results published in publication PMC12095592 (Communications Biology, 2025).

Columns and labels:
[1] = biological target: GDID (GBD-DID construct of human DIAPH1, residues 83-380) (human, UniProt O60610 83-380); assay: ELISA
full length DIAPH1 = full length DIAPH1 (human, UniProt O60610); assay: ELISA
Sequence of full length DIAPH1 (O60610 whole entry): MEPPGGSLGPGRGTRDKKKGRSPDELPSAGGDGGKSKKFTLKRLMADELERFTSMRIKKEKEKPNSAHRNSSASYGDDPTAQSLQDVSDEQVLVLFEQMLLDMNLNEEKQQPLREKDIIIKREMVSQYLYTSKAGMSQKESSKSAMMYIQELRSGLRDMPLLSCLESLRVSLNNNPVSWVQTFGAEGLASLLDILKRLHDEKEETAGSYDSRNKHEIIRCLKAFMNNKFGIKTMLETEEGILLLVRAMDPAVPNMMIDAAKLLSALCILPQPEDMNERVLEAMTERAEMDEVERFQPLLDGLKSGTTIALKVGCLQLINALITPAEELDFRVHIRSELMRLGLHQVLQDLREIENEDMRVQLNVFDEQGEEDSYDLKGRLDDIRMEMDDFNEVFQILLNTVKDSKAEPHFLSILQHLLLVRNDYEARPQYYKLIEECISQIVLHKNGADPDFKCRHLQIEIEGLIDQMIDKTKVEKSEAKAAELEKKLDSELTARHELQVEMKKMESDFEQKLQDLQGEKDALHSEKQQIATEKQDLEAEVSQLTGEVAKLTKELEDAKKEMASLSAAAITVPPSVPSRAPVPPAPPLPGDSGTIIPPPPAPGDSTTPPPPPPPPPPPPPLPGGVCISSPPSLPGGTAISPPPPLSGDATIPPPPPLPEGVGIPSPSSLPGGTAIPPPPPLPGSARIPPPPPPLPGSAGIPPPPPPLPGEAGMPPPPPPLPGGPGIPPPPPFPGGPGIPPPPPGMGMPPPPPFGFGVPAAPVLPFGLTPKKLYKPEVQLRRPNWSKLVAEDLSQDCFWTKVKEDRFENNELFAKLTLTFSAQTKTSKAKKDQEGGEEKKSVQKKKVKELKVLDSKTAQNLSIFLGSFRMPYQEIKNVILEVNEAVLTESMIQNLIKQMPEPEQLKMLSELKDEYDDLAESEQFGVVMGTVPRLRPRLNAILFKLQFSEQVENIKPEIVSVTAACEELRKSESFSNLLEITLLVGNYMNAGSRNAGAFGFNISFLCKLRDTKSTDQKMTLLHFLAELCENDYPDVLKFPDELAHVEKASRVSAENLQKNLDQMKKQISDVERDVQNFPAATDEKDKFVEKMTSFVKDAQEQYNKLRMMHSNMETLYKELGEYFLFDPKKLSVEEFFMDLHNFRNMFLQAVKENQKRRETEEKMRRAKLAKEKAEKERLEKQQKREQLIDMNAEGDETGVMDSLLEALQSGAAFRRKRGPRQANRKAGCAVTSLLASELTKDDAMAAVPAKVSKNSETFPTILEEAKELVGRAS

Kd [1]: 8.9 ± 2.4 nM
Kd (full length DIAPH1): 450 ± 40 nM
B1: RhoA^Q63L (natural protein)
chain: not shown
